Test system: MEFs

A-Bcl-2: S70A recombinant Bcl-2 with reduced ability to interact with Bax, mimics the un-phosphorylated form
onset of spontaneous contraction (MyoD + A-Bcl-2 vs MyoD/GFP): started to spontaneously contract consistently earlier than the MyoD/GFP transduced controls | cells with multinuclear myotube morphology (MyoD + A-Bcl-2 vs MyoD/GFP, 5 DPI): significantly more cells acquired a multinuclear myotube morphology | myotube length (MyoD/A-Bcl-2 vs MyoD, 5 DPI): increases the proportion of multinuclear cells (C), myotube length (D)

Reference: patent publication US10752881B2, “Trans-differentiation of differentiation cells” (Helmholtz Zentrum München-Deutsches Forschungszentrum für …, priority 2014, dated 2020)
